# Test results published in PubChem BioAssay (Tox21).
# Values joined by “and” are separate entries in the source; they are usually repeats but may differ in a detail not shown here. Identical values can stand only once. The inconclusive results got no clear call from the source; some entries with a clear call stand among them for comparison. For some assays here: Potencies beside an inconclusive call are fits to weak or partial responses and may not hold up. Active and inactive are the calls of the source. Unless noted, calls follow the shape of the dose curve; as a rule, active = well fitted curve in the direction sought with a large enough effect in the repeat runs; inconclusive = weak or mixed curves; inactive = no such curve, though single readings can be large; an effect the other way counts as inactive or inconclusive.
# What was measured:
# [1] = qHTS assay to identify small molecule antagonists of the retinoic acid receptor (RAR) signaling pathway (AID 1159552; also: nearly all actives have a fitted effect of over 50% in size; also: potency is read from the fitted curve at half-maximal effect; as to activity, negative = inhibition: % is scaled to controls: 0 for no effect and ±100 for the full control effect)
# Procedure, shortened: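 Retinol signaling pathway inhibitors screened in C3RL4 RARE-luciferase reporter cells seeded overnight at 37 C, then compounds added with 1 uM (final) retinol as pathway substrate. After 6 hr at 37 C, luciferase luminescence read after 30 min at room temperature.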
# [2] = qHTS assay to identify small molecule agonists of the retinoic acid receptor (RAR) signaling pathway (AID 1159553); settings: C3RL4 RARE luciferase reporter, agonist, 6 h; activation: at 73.3 µM (top of the series) unless noted; also: potency is read from the fitted curve at half-maximal effect; as to activation: % is scaled to controls: 0 for no effect and ±100 for the full control effect
# Procedure, shortened: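 Activation of retinol signaling was monitored via a RARE luciferase reporter in C3RL4 cells. After 6 hr compound treatment at 37 C, detection reagent was added for 30 min at room temperature before luminescence reading.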
# [3] = biological target: Luciferin 4-monooxygenase (Photinus pyralis) (UniProt P08659); assay: qHTS assay to identify small molecule inhibitors of firefly luciferase (AID 1224835); also: potency is read from the fitted curve at half-maximal effect; nearly all actives have a fitted effect of over 25% in size
# Procedure, shortened: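 Inhibition of purified Photinus luciferase is measured by luminescence. Substrate levels (D-luciferin, ATP) sit at their KM values. Each compound is tested in a concentration series.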
# [4] = biological target: Nuclear receptor subfamily 1 group I member 3 (Homo sapiens) (UniProt Q14994); assay: qHTS assay to identify small molecule agonists of the constitutive androstane receptor (CAR) signaling pathway (AID 1224839); also: nearly all actives have a fitted effect of over 15% in size; also: potency is read from the fitted curve at half-maximal effect;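 as to activation: HepG2 cells stably carrying human CAR and a CYP2B6 luciferase reporter; % is scaled to controls: 0 for no effect and ±100 for the full control effect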
# Procedure, shortened: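 HepG2 cells stably co-transfected with hCAR and a CYP2B6-2.2kb luciferase reporter; compounds at 15 concentrations with 0.75 uM PK11195 present. After 24 hr at 37 C, luciferase read by ONE-Glo luminescence.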
# [5] = qHTS assay to identify small molecule agonists of the hypoxia (HIF-1) signaling pathway - cell viability counter screen (AID 1224844; calls by dose curve; also: potency is read from the fitted curve at half-maximal effect; nearly all actives have a fitted effect of over 50% in size)
# Procedure, shortened: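 Multiplexed with the HRE beta-lactamase assay, this viability read used CellTiter-Glo luminescence (30 min, RT) on HRE-bla ME-180 cells treated 17 hrs with compounds in 0.5% dialyzed FBS medium.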
# [6] = qHTS assay to identify small molecule agonists of the constitutive androstane receptor (CAR) signaling pathway - cell viability counter screen (AID 1224836); also: potency is read from the fitted curve at half-maximal effect; nearly all actives have a fitted effect of over 45% in size
# Procedure, shortened: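 HepG2 cells stably carrying hCAR and a CYP2B6-2.2kb reporter; 15-concentration compounds plus PK11195 (final 0.75 uM), 23 hr at 37 C/5% CO2. Viability read by CellTiter-Fluor fluorescence.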
# [7] = qHTS assay to identify small molecule antagonists of the estrogen related receptor signaling pathway with the pleiotropic PPARgamma coactivator (PGC) from Tox21 10K library - cell viability counter screen (AID 1224840; active = well fitted cell-killing curve with a large enough effect in the repeat runs, not every such curve was filed as active; inconclusive = weak or mixed curves, or effect the other way; inactive = no such curve, though single readings can be large or run the other way; also: nearly all actives have a fitted effect of over 40% in size; also: potency is read from the fitted curve at half-maximal effect)
# Procedure, shortened: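 Here the PGC/ERR cells serve as a cytotoxicity control: they are exposed to compounds for 17.5 hours at 37 C, and live-cell signal is quantified using CellTiter-Fluor fluorescence.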
# [8] = qHTS assay to identify small molecule antagonists of the estrogen related receptor (ERR) signaling pathway from Tox21 library - cell viability counter screen (AID 1224834); also: potency is read from the fitted curve at half-maximal effect; nearly all actives have a fitted effect of over 30% in size
# Procedure, shortened: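 CellTiter-Fluor fluorescence measured; ERR cells; 17.5 h compound incubation at 37 C; 30 min reagent step.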
# [9] = qHTS assay to identify small molecule antagonists of the estrogen related receptor signaling pathway with the pleiotropic PPARgamma coactivator (PGC) from Tox21 10K library (AID 1224841; call rule not given here; also: % is scaled to controls: 0 for no effect and ±100 for the full control effect; actives are mostly falling curves and most rising ones were filed inactive; nearly all actives have a fitted effect of over 50% in size)
# Procedure, shortened: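 Each well held 2,000 PGC/ERR cells, pre-incubated six hours (37 C, 5% CO2). Test substances in DMSO were added by pin tool and left for 18 h at 37 C before luciferase detection by One-Glo.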
# [10] = biological target: Thyrotropin receptor (Homo sapiens) (UniProt P16473); assay: qHTS assay to identify small molecule agonists of the thyroid stimulating hormone receptor (TSHR) signaling pathway (AID 1224843; calls by dose curve; also: nearly all actives have a fitted effect of over 45% in size; also: potency is read from the fitted curve at half-maximal effect; as to activation: % is scaled to controls: 0 for no effect and ±100 for the full control effect); settings: TSHR-HEK293 cells, cAMP HTRF, agonist mode, 30 min; activation: at 92.4 µM (top of the series) unless noted
# Procedure, shortened: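 Screening of the Tox21 10K collection used HEK293 cells engineered with TSHR at 800 cells per well. After a 30-min room-temperature compound exposure, HTRF cAMP reagents were added and fluorescence recorded 1 h later.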
# [11] = qHTS assay to identify small molecule antagonists of the constitutive androstane receptor (CAR) signaling pathway - cell viability counter screen (AID 1224837); also: potency is read from the fitted curve at half-maximal effect; nearly all actives have a fitted effect of over 45% in size
# Procedure, shortened: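 Using CellTiter-Fluor, viability is scored in HepG2 cells stably carrying hCAR and a 2.2kb CYP2B6 reporter after 23 hr compound exposure across 15 concentrations, with CITCO present at 50 nM.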
# [12] = biological target: Nuclear receptor subfamily 1 group I member 3 (Homo sapiens) (UniProt Q14994); assay: qHTS assay to identify small molecule antagonists of the constitutive androstane receptor (CAR) signaling pathway (AID 1224838);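 also: HepG2 cells stably expressing hCAR with CYP2B6 luciferase reporter stimulated by CITCO; potency is read from the fitted curve at half-maximal effect; nearly all actives have a fitted effect of over 40% in size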
# Procedure, shortened: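 Reporter luminescence was quantified after 24 h exposure of hCAR/CYP2B6-2.2kb double-stable HepG2 cells to compounds at 15 concentrations in the presence of 50 nM CITCO final.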
# Tags tell the direction and shape of the fitted curve or compound fluorescence and quenching.
# Sequence of UniProt P16473 (P16473 whole entry, looked up): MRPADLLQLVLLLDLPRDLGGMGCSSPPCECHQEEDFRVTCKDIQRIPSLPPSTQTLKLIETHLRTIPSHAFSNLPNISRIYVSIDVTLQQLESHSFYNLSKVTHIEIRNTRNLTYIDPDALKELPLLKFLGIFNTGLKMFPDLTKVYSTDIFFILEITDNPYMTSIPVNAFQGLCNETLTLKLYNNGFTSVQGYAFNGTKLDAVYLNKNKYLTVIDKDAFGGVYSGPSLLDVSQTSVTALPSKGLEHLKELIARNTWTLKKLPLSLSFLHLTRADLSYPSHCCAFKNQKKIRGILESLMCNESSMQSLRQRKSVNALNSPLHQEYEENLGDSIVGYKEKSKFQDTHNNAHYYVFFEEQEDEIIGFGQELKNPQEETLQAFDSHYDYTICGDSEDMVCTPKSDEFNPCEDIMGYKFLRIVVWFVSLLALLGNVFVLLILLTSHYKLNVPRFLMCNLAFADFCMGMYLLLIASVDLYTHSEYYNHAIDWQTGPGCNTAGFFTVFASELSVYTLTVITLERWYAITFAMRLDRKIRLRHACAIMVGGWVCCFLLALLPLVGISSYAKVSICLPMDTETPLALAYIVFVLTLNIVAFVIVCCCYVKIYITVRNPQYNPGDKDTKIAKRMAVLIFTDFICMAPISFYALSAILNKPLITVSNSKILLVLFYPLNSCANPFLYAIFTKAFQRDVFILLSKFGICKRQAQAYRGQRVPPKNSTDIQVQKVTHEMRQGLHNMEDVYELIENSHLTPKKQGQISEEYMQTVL
# Sequence of UniProt Q14994 (Q14994 whole entry, looked up): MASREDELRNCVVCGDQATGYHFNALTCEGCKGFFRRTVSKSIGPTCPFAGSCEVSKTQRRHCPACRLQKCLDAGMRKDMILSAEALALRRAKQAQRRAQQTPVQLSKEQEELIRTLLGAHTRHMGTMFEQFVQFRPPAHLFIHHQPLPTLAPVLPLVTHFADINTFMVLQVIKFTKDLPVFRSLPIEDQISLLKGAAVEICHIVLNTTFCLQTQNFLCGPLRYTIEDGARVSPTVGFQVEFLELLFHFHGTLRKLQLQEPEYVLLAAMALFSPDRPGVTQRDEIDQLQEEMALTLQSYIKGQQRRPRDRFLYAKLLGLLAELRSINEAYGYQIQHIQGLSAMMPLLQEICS
# Sequence of UniProt P08659 (P08659 whole entry, looked up): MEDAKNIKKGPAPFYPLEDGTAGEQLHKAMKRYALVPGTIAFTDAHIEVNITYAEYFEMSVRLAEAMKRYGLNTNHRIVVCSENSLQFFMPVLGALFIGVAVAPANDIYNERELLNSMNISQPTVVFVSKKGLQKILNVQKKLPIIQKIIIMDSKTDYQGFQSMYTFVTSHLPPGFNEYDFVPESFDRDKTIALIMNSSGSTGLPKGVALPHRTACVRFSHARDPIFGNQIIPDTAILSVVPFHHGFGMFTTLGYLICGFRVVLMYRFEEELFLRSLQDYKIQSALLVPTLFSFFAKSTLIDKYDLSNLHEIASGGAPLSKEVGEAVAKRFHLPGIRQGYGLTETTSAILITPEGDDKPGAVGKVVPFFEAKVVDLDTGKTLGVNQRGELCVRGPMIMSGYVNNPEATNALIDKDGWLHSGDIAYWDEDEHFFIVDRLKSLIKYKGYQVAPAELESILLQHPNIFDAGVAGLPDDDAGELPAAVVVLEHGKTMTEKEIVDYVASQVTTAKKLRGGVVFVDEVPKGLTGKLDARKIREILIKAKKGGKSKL
smiles,measurement,setting,value
Oc1ccc2c(c1)Cc1ccccc1-2,Potency,[1],inactive
same,Potency,[2],active: 13.7 µM
same,Potency,[3],active: 31.7 µM
CC(C)=CCC/C(C)=C/CC/C(C)=C/C(=O)OCC(=O)[C@@]1(O)CC[C@H]2[C@@H]3CCC4=CC(=O)C=C[C@]4(C)[C@H]3[C@@H](O)C[C@@]21C,Potency,[1],"inconclusive: 4.73 µM [inhibitor, partial curve, poor fit]"
same,Potency,[2],inactive
same,Potency,[4],"inconclusive: 33.5 µM [activator, single point]"
same,Potency,[5],"inconclusive: 21.3 µM [cytotoxic, partial curve]"
CNS(=O)(=O)c1cc(C(=O)N2CCC(CCN3C4CCC3CC(n3c(C)nc5ccccc53)C4)(c3cccc(F)c3)CC2)c(Cl)cc1F (stereo not drawn),Potency,[1],"inconclusive: 13.7 µM [inhibitor, full curve]"
same,Potency,[2],"inconclusive: 30.6 µM [inhibitor, partial curve, poor fit]"
same,Potency,[6],"inconclusive: 21.7 µM [cytotoxic, full curve]"
same,Potency,[7],"inconclusive: 12.2 µM [cytotoxic, full curve]"
same,Potency,[5],active: 3.89 µM
O=C(O)c1cccc(-c2noc(-c3ccccc3F)n2)c1,Potency,[1],active: 0.422 µM
same,Potency,[2],active: 0.003 µM
O=C(/C=C/C=C/c1ccc2c(c1)OCO2)N1CCCCC1,Potency,[1],inactive
same,Potency,[2],active: 3.86 µM and active: 1.93 µM
same,Potency,[8],"inconclusive: 48.7 µM [cytotoxic, partial curve] and inconclusive: 61.1 µM [cytotoxic, partial curve]"
same,Potency,[9],inactive
same,Potency,[5],"inconclusive: 43.7 µM [cytotoxic, partial curve]"
CC(CN(C)C)CN1c2ccccc2CCc2ccccc21 (stereo not drawn),Potency,[1],inconclusive: 26.6 µM [inhibitor]
same,Potency,[2],"inconclusive: 23.7 µM [inhibitor, partial curve, poor fit]"
same,Potency,[8],inconclusive: 33.5 µM [cytotoxic]
same,Potency,[10],"inconclusive: 26.6 µM [inhibitor, partial curve, poor fit]"
same,Potency,[5],"inconclusive: 21.3 µM [cytotoxic, partial curve]"
CCC(OCCCOC)OC(C)=O (stereo not drawn),Potency,[1],inactive
CCCCC/C=C\C=C\C(=O)OCC,Potency,[1],"inconclusive: 71.5 µM [inhibitor, single point]"
same,Potency,[2],"inconclusive: 80.2 µM [inhibitor, single point]"
same,Potency,[6],"inconclusive: 71.5 µM [cytotoxic, partial curve, poor fit]"
same,Potency,[11],"inconclusive: 63.7 µM [cytotoxic, single point]"
same,Potency,[7],"inconclusive: 71.5 µM [cytotoxic, single point]"
same,Potency,[10],"inconclusive: 63.7 µM [activator, single point]"
NC(=O)C(=O)N/N=C/c1ccc([N+](=O)[O-])o1,Potency,[1],"inconclusive: 33.5 µM [inhibitor, single point]"
same,Potency,[2],"inconclusive: 33.5 µM [inhibitor, single point]"
same,Potency,[10],"inconclusive: 26.6 µM [activator, partial curve]"
CCO[Si](CC(C)C)(OCC)OCC,Potency,[1],inactive
same,activation,[10],inconclusive: 36.2%
O=C(CCCCCCCCC#CI)Oc1ccccc1,Potency,[1],"inconclusive: 23.7 µM [inhibitor, partial curve]"
same,Potency,[12],"inconclusive: 10.6 µM [inhibitor, partial curve, poor fit]"
same,Potency,[10],inactive
CC(C)(C)NCCNC(C)(C)C,Potency,[1],inactive
same,Potency,[4],inactive
O=C(OCC(O)CO)c1ccccc1Nc1ccnc2c(C(F)(F)F)cccc12 (stereo not drawn),Potency,[1],"inconclusive: 33.5 µM [inhibitor, partial curve, poor fit]"
same,Potency,[3],"inconclusive: 43.6 µM [inhibitor, partial curve]"
O=C1CCCCCCCCCCC1,Potency,[1],inactive
same,Potency,[7],inactive
same,Potency,[10],inactive
CC(O)CN(CCN(CC(C)O)CC(C)O)CC(C)O (stereo not drawn),activation,[2],inconclusive: -0.666% [phenotype inactive]
COC(=O)c1ccc(O)cc1,Potency,[2],inactive
CN(C/C=C/C#CC(C)(C)C)Cc1cccc2ccccc12,Potency,[1],"inconclusive: 29.8 µM [inhibitor, partial curve, poor fit]"
same,Potency,[4],"inconclusive: 21.1 µM [activator, partial curve]"
NC(=S)NC(N)=S,Potency,[2],"inconclusive: 68.6 µM [activator, partial curve, poor fit]"
CC(NN)c1ccccc1 (stereo not drawn),"activity, negative = inhibition",[1],inactive: 37.3% [at 19 µM]
same,activation,[10],inactive: -0.741% [at 19 µM]
